Test results from PubChem BioAssay (NCI).
More than one record can exist for a structure, and the calls need not agree.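 Single-concentration screen, 48 h exposure, 96-well plates. Endpoint: percent growth. Below 10 = active.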 The source holds more than one record for some entries. Only these are listed. There may be further records. These are repeated runs of one drug, at the concentration stated with the values; each value is one run. Brackets with × stand for listed records that agree.

Tested on: SW-620 colon
Assay: NCI-60 one-dose screen, 48 h (100 = growth as untreated, 0 = no growth, -100 = all killed)

COc1cccc2c1C(=O)c1c(O)c3c(c(O)c1C2=O)C[C@@](O)(C(=O)CO)C[C@@H]3OC1CC(N)C(O)C(C)O1 (stereo not given in full)
growth (0.25 µM, runs of 2018): inactive: 32.9 (2×), 35.6, 34.6 (2×), 40.1, 41.5, 31.4 (2×), 33.4, 36.3, 39.7, 41.6, 42.7, 36, 34.4 (2×), 40.5, 31.7, 36.2 (2×), 29.3, 33.7, 33.2, 30.6, 28, 32.2, 32.8, 26.2, 34.2, 37.9, 44.3, 32.3, 33.8, 33.9, 31.5, 30.4, 33.1, 19.4, 26.6%
growth (0.25 µM, runs of 2019): inactive: 29.2 (2×), 28.4, 21.9, 22.3, 25, 30.1, 25.6, 24.5, 26.4, 24.7, 28.6 (3×), 30.8, 30, 32.5, 33.7, 32, 29.4, 31.5, 30.7, 29.1 (2×), 27.7, 25.1, 33.2, 33.9, 27.9, 26, 24, 26.9, 35.1, 35.6, 33.3, 31.4, 36.1, 23.8, 23.9, 26.1%
growth (0.25 µM, runs of 2020): inactive: 33.4, 30.3 (3×), 35.4, 32, 34.6, 32.2, 27.3, 28.2, 36.8, 31.5 (2×), 29.9, 37.6, 30.8, 24.4, 32.8, 29.1%
growth (0.25 µM, runs of 2021): inactive: 34.6, 37.8, 37.1 (2×), 38.5, 33.9, 29.4 (2×), 30.6, 30.7 (2×), 30.1, 26.8, 27.6, 37.4, 32.7, 37, 33.3 (2×), 28.9, 29.5, 31.4, 29.9 (2×), 29.3, 32.8, 28, 28.2, 30.4, 30.5, 29.1, 31.5, 32.2, 35.8, 34.4, 27, 30.2, 27.7, 27.4, 36.4, 24.8, 24.7, 47.1%
growth (0.25 µM, runs of 2022): inactive: 22.5, 24.6, 31.5, 27.2, 10.1, 28.4, 22.1, 27.5 (2×), 29, 23.2, 30.3, 30.2, 29.5, 32.3, 29.7, 20.3, 53.7, 51.9, 27.3, 56, 50.6, 55.2, 34, 35.6, 31.4%
growth (25 µM, runs of 1991): active: -19.9, -17.6, -14.3, -24.4, -24.2, -9.38, -22.7, -15.6, -10.7, -12.5, -6.45, -19.1, -18.9, 2.46, -17.2, -9.11, -2.49, -21.8, -24.9%
growth (25 µM, runs of 1992): active: -16.2, -39.9, -19.2, -41.9, 4.47, -17.1, -34.3, -24.5, -3.31, -15.3, -13.8, -11.6, -1.37, -20.7, 0.794, -41.7, -13.4, -10.9, -22.1, -64.6, -19.7 (2×), -33.4, -33.8 (2×), -9.09, -5.05, -13.3, -4.38, -6.93, -67.4, -15.9, -20.8, -39, -13, -17.3, -7.43, -27, -29.2, -22.9, -18.4, -19.1 (2×), -10.6 (2×), 4.62, 1.89, 1.44, -58.2, 0.84, -62.6, -58.5, -36, -16.8, 0.221, -4.85, -19, -36.2, -42.9, -3.71, -3.05, -25.9, -3.83, -38.3, -7.32, -35.3 (2×), -24.1, -34.9, -46.6, -30.9, -11.2, -38.6, -13.9, -6.98, -6.81, -18.1, -75.6, 2.41, 1.36, -3.08, -30.8, -36.4, -13.2, -24.6, -26.2, -10.4 (2×), -25, -24.7, -10.2, 0.348, -18.2, -20.1 (2×), -2.09, -21.2, -49.2, -8.27, -1.94, -14.9, -39.1, -26.4, 1.38, -29.7, -3.23, -36.8, -15.2, -42.2, -36.6, -22.4, 0.771, 3.25, 2.98, -29.5, -9.07, -16.9, 1.31, 0.0603% and inactive: 116%
growth (25 µM, runs of 1993): active: -25.1, -25.5, 5.29, -20.6, -28.7, -36.1, -31.1, -31.5, -14.6, 5.74, -36, -45, -16.2, 2.15 (2×), 1.83, 0.541, -17.1, 3.5, -28.9 (2×), -10, -12.7, -43.2, -2.11, 0.146, -22.9, -9.79, -26.3, -36.9, -29.7, -29.8, -11.3, -32.6, -8.02, -2.27, -12, 1.49, -17.9, -14.4, -2.66, 1.38, -29.2, -19.4, -24.9% and inactive: 13.6%
growth (25 µM, runs of 1994): active: -11.5, -65.8, -24.9, -21.8, -16, 0.91, -11.9, -37.1, -3.1, -15.3, -63.5, -18.3, -7.72, -48.4, -22.4, -0.278, -52.1, -18.9, -30, -20.1, -8.22, -44.9, -28.8, -25.6, -64.3, 0.475, -27.2, -30.8, -21.3, -11.2, -9.39, -31.1, -15.1% and inactive: 80.7%, 15.3%
growth (25 µM, runs of 1995): active: -14.9, -56.6, -25.1, 1.48, -26.1, -30.4, 0.624, -23.5, 4.33, -15.5, 2.22, -53.7, -1.74, 5.06, -25.9, -11.7, 3.59, -0.852, -26.7, -19.3, -32.5, -66.7, -12.3, 6.13, -21.9, -11.2, -24.3, -10.7, 6.68, 2.41, -17.2, -15.1, 6.21, -18.3, -37.8, -21.2, -47.3, -25.7, -28.5, -7.42%
growth (25 µM, runs of 1996): active: -14.2, -5.47, -8.21, -20.8, 2.29, 0.132, 2.89, -13.8, -46.3, 0.537, -32.8, -44.2, 1.29, -16.2, -12.7, -13, -22.9, -0.289, 7, -28, 0, -20.7, -14.7, 0.42, -14.1, -4.36, -22.2, -11.8, 3.66, 5.6, 9.13, -2.23, -20.2, -0.588, 2.97, -57.1, 3.45, -1.81, -6.47, 8.65, 4.45, -18.2, -17.7, -2.45, 8.84, 0.473, -7.07, -22, -13.5% and inactive: 11.9, 98.6, 12.2, 13.8%
growth (25 µM, runs of 1997): active: -44.7, 0.48, -29.2, -16.1, 5.39, 1.16, -11.6, -40.9, -42.4, 9.48, -5.9, 5.75, -6.25, -18.9, 0, 0.443, -9.05, -9.15, 0.538, -16.7, -10.1, 4.76, -30.3, 0.182, 4.1, -9.16, -27.9, -2.4, -36, -14.3, -30.9, -19.3, -7.5, 0.806, -61.9, 2.46, -20.9, -30, 7.22% and inactive: 11.1%, 11.3%
growth (25 µM, runs of 1998): active: -32.9, -28.3, -61.6, -1.22, 3.35, 3.41, -52.6, -57, -6.63, -45.6, 0.632, 3.24, 0.617, -17.2, -0.336, 5.03, -1.53, 5.65, -0.621, 2.11% and inactive: 17.6%, 10.3%, 28.4%
growth (25 µM, runs of 1999): active: -29.4, 8.33, 7.3, -46, -100 (2×), -22.1, 5.4, -69.5, 2.29, 4.53, 1.05, 4.79, 7.86, 1.46% and inactive: 11.6%, 14%
growth (25 µM, runs of 2000): active: 3.74%, 4.23%, 1.23% and inactive: 490%
